The whole screen tested about 310,000 compounds, of which about 14,000 (4.5%) showed an effect of 50% or more. The effect is printed as a negative number. The list shows a part of the results.
The compounds below were run against human ether-à-go-go-related gene (hERG) potassium channel (human, UniProt Q12809) (assay: primary screen, population patch clamp on CHO cells stably expressing hERG).
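Note: peak tail current of the secondary pulse compared with the same well before compound.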

Chain of human ether-à-go-go-related gene (hERG) potassium channel (Q12809 whole entry, looked up): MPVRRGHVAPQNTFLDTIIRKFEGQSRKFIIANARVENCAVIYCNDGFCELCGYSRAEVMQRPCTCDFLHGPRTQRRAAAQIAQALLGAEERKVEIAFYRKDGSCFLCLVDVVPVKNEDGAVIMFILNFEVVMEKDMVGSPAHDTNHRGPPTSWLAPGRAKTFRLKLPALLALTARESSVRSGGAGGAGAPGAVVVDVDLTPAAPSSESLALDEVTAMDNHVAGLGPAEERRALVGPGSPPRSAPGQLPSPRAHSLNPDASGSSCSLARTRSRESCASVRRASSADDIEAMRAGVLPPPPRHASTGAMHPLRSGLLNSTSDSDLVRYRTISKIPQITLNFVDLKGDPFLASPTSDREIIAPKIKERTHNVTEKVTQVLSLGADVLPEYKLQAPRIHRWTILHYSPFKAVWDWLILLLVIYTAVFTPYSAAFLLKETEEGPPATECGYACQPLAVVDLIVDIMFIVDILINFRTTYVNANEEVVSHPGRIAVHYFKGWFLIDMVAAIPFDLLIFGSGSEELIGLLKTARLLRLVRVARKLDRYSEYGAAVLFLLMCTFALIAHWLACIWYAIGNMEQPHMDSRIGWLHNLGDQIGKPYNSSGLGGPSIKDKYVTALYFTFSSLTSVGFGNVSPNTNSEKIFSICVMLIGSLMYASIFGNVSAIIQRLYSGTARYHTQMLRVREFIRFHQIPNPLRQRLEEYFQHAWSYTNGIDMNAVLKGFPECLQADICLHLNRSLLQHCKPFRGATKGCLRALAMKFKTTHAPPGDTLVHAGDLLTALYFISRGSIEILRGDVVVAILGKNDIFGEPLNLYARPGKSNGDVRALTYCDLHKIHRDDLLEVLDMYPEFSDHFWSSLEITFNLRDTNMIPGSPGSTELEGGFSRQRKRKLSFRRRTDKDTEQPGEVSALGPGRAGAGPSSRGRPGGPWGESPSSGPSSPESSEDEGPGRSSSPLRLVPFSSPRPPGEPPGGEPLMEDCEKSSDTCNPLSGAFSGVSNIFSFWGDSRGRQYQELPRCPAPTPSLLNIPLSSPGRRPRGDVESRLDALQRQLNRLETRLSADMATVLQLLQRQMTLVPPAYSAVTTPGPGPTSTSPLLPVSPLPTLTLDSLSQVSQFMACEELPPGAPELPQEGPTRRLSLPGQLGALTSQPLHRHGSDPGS

| SMILES | hERG current change (%, negative = inhibition) at 10uM [%] |
| --- | --- |
| Cc1nc2ccc(NC(=O)c3cccs3)cc2c(=O)n1Cc1ccc(Cl)cc1 | 9.84 |
| COCCNS(=O)(=O)c1ccc2c(c1)C(=O)c1cc(S(=O)(=O)NCCOC)ccc1-2 | -20.5 |
| Cc1c(OC(C)C(=O)NCCN2CCOCC2)ccc2c3c(c(=O)oc12)CCC3 (stereo not shown) | 3.35 |
| CCO.CCOc1ccc(Cl)cc1C(c1c(C)[nH][nH]c1=O)c1c(C)[nH][nH]c1=O | 5.54 |
| COc1ccccc1C(=O)NCC(=O)OCC(=O)Nc1cccc(S(=O)(=O)N(C)C)c1 | 0.964 |
| Cc1ccc(N=Cc2c(O)c3ccccc3oc2=O)c(C)c1 | 12.5 |
| CON(C)c1nc(C2CCCCC2)c2cc(C)ccc2n1 | -19.7 |
| C[C@H](NC(=O)c1ccccc1Cl)C(=O)OCC(=O)N1CC2(C)CC1CC(C)(C)C2 (stereo partly shown) | -3.77 |
| O=C(Cc1ccc(F)cc1)Nc1c2c(nn1-c1cccc(Cl)c1)CS(=O)C2 (stereo not shown) | -12.4 |
| O=S(=O)(NCCc1ccccc1)c1ccc(-n2cnnn2)cc1 | -56.7 |
| CCN(C(=O)Nc1ccccc1)c1ccccc1 | 4.25 |
| CCN(CC)C(=O)c1ccccc1NS(=O)(=O)c1ccc(C)cc1 | -2.46 |
| COc1cc(/C=N/NC(=O)COc2c(C)cc([N+](=O)[O-])cc2C)ccc1OC(=O)c1ccccc1Br | 30.6 |
| O=c1cccc2n1CC1CC2CN(S(=O)(=O)c2cc(Cl)ccc2Cl)C1 (stereo not shown) | -33 |
| COC(=O)COc1cccc2c(=O)n(CC(=O)N3CCCc4ccccc43)ccc12 | 8.33 |
| CN(c1ccc(C(=O)N2CCOCC2)cc1[N+](=O)[O-])C1CCCCC1 | -23.1 |
| N#CCCN1CCN(C(=S)c2ccc(-c3ccc(Cl)c(Cl)c3)o2)CC1 | -14.1 |
| CCOc1cc(N2CCOCC2)c(OCC)cc1NC(=O)CN1C(=O)NC2(CCCCCCC2)C1=O | -63 |
| CCOC(=O)C(NC(=O)NCc1ccccc1)(OCC)C(F)(F)F (stereo not shown) | 11.2 |
| COc1cc(OC)cc(-c2nc3ccccc3c(=O)o2)c1 | 0.0946 |
| CC(C)c1ccc(N(CCc2ccccn2)C(=O)C(C)(C)C)cc1 | -5.99 |
| O=C(CCc1nnc(CCCCc2ccccc2)o1)NCc1cccc(F)c1 | -22.3 |
| COc1ccccc1C(=O)NCC(=O)N/N=C(\C)Cc1ccccc1 | 9.91 |
| COc1ccc(C(=O)CSc2nn3c(=O)c(C(C)(C)C)nnc3s2)cc1 | 5.15 |
| CC(C)C(=O)Nc1nnc(-c2ccco2)s1 | 7.71 |
| CCCc1nnc(NC(=O)CN2C(=O)C3C4C=CC(C4)C3C2=O)s1 (stereo not shown) | -10.6 |
| [O-][N+]1=c2ccc(Nc3ccccc3)cc2=NC12CCCCC2 | -26.5 |
| COc1ccccc1CN(C)c1ccc(S(=O)(=O)N2CCN(C)CC2)cn1 | -31.6 |

| SMILES | hERG current change (%, negative = inhibition) at 10uM [%] |
| --- | --- |
| O=C(C(Cc1ccccc1)NS(=O)(=O)c1ccc(F)cc1)N1CCC2(CC1)OCCO2 (stereo not shown) | -12.9 |
| CC[C@@]12C(=O)N(c3cccc(F)c3)C(=O)N1[C@H](c1cccc(C)c1)[C@@H]1C(=O)N(Cc3ccccc3)C(=O)[C@@H]12 | 0.427 |
| O=C(CSc1nnnn1-c1ccccc1)Nc1ncc2c(n1)CC(c1ccccc1)CC2=O (stereo not shown) | 14.5 |
| CC[C@H](C)[C@H](NC(N)=O)C(=O)Nc1ccccc1F | 1.36 |
| COc1ccccc1-c1nnc(SC(C)C(=O)O)n1-c1ccccc1 (stereo not shown) | 28.5 |
| CCOc1ccccc1NC=C1C(=O)OC2(CCCCC2)OC1=O | 5.07 |
| Cc1ccc(NC(=O)c2ccco2)c(NC(=O)Cc2cccs2)c1 | -2.72 |
| NC(=O)COC(=O)c1ccccc1OCc1ccccc1 | 18.3 |
| CC[C@H](C)[C@H](NC(=O)OCc1ccccc1)C(=O)OCC(=O)N(C)CC(=O)Nc1ccccc1Cl | -64.5 |
| C#CCNc1nc(C(C)C)nc2c1nnn2Cc1ccccc1F | 2.68 |
| O=C(COC(=O)c1ccccn1)Nc1c(Cl)cccc1Cl | 3.37 |
| Cc1cc(C)nc(SCc2ccc(C(=O)N/N=C/C3CCCCC3)cc2)n1 | -12.5 |
| CC1=C(C)CC(C(=O)NCCCN2CCCC2=O)C(C(=O)O)C1 (stereo not shown) | 5.98 |
| N/C(=N\OC(=O)CCCOc1ccccc1)c1cccc([N+](=O)[O-])c1 | -21.1 |
| Cc1cc(/C=N/n2c(COc3ccccc3C)nc3ccccc3c2=O)c(O)c([N+](=O)[O-])c1 | 10.7 |
| O=c1ccnc(Nc2ccc([N+](=O)[O-])cc2)[nH]1 | 3.04 |
| CCOC(=O)c1sc2ccc(S(=O)(=O)N3CC(C)CC(C)C3)cc2c1N (stereo not shown) | 7.29 |
| Cc1nc(N2CCN(c3ccccn3)CC2)c2c(C)c(C(=O)Nc3ccc(F)cc3Cl)sc2n1 | -41.6 |
| Cc1nc(NC(=O)CN2CCOCC2)sc1C(=O)N(C)C | 15.3 |
| Cc1ccc(C(C)n2cc(C(=O)NCCN3CCN(C)CC3)nn2)cc1 (stereo not shown) | 0.955 |
| CCO[C@@H]1c2c(ccc3ccc(=O)oc23)OC(C)(C)[C@H]1O | 27.4 |
| COc1cc(C)c(/C=C(\C#N)C(=O)Nc2ccc(C)cc2)cc1C(C)C | 11.1 |
| Fc1cccc(/C=N/Nc2ccc(Cl)nn2)c1 | 7.33 |
| CN(C)c1ccc(NC(=O)CSc2nc(N)c(C(=O)Nc3ccc(N(C)C)cc3)s2)cc1 | 14.2 |
| CCCCN(C)CCCNC(=O)c1cccc(N2CCCC2=O)c1 | 11.5 |
| CCOC(=O)CN1NC2(CCCCCC2)NC1=S | 9.28 |
| CCOC(=O)c1cc2c(N)c(C(=O)c3ccc(Br)cc3)sc2[nH]c1=O | -4.56 |
